# Experimental data taken from PubChem BioAssay AID652104 (National Center for Advancing Translational Sciences (NCATS), 2013).
# Screen size: about 410,000 compounds; about 7,200 (1.8%) were called active. This list was built around the results that the source calls inconclusive (neither active nor inactive); the mix of calls is not that of the screen. Calls follow the shape of the dose curve; as a rule, active = well fitted activation curve with a large enough effect; inconclusive = small, poorly fitted or top-dose-only effect, or another doubt; inactive = no such curve, though single readings can be large or run the other way. Potencies of inconclusive entries are left out as doubtful fits.
# Test: qHTS of TDP-43 Inhibitors; also: nearly all actives have a fitted effect of over 50% in size; as to growth rescue (activation): % of control where 0% means no effect
# Conditions: TDP-43 expressing yeast growth rescue, BacTiter-Glo, 24 h; growth rescue (activation): at 46.1 µM (top of the series) unless noted
# How it was run: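 Galactose-induced TDP-43 yeast, OD600=0.02, compound pinned; 24 hr, 30 deg C; BacTiter-Glo luminescence for growth. Inhibitors of TDP-43 toxicity read as activators.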
# Potency is read from the fitted curve at half-maximal effect; tags tell the direction and shape of the fitted curve.
SMILES,Potency,growth rescue (activation)
COc1cccc(C(O)c2nc(-c3cccc(C(F)(F)F)c3)cs2)c1 (stereo not given),active: 22.4 µM,–
CN(C)c1nc(SCCOC(=O)Nc2ccccc2)nc(N(C)C)n1,active: 3.16 µM,–
Cc1ccc(-c2ccc(/C=C/C(=O)c3ccccc3)o2)cc1,"inconclusive [activator, full curve, poor fit]",–
COc1ccccc1C(=O)OCc1cc(=O)n2nc(C(C)C)sc2n1,"inconclusive [activator, partial curve]",–
O=C(N/N=C/c1ccco1)c1cc(-c2cccc3ccccc23)n[nH]1,"inconclusive [activator, single point]",–
Cc1nnc(SCc2cccc(CSc3nnc(C)s3)c2)s1,"inconclusive [activator, single point]",–
CCC(C)NC(=O)c1sc2nc(C)c(C(=O)Nc3ccc(C)cc3C)c(-c3ccccc3Cl)c2c1N (stereo not given),"inconclusive [activator, partial curve]",–
CCCCC1CCC(C(=O)N2CC(=O)Nc3ccc(Cl)cc3C2c2ccc(F)cc2)CC1 (stereo not given),inactive,–
Cc1noc(C)c1-c1ccc(C(=O)NCC2CC2)c2occc12,"inconclusive [activator, partial curve]",–
Cc1ccc2[nH]cc(CCNC(=O)c3ccc4c(c3)OCO4)c2c1,"inconclusive [activator, partial curve]",–
CCC(Oc1ccc(Br)cc1Cl)C(=O)Nc1nnc(C2CC2)s1 (stereo not given),"inconclusive [activator, full curve]",–
O=C(O)c1ccc(CSc2nnc(-c3ccc(Cl)cc3)o2)cc1,inactive,–
C=CCNCCOCCOc1ccccc1-c1ccccc1,inactive,–
CC(C)(C)NC(=O)CN(C(=O)Cn1nnc(-c2ccc(Cl)cc2)n1)C1CCN(Cc2ccccc2)CC1,inactive,–
Cc1ccc(C)c(CNC(=O)c2cc3ccccn3n2)c1,"inconclusive [activator, single point]",–
Cc1cc(C(=O)N2CCN(c3cccc(Cl)c3)CC2)c(C)o1,"inconclusive [activator, single point]",–
Cc1cc(OCC(=O)N2CCc3ccccc3C2)c(C)cc1Br,–,inconclusive: 57.9% [activator]
O=[N+]([O-])c1cccc(-c2ccc(/C=N/Nc3nc(N4CCCCC4)nc(N4CCCCC4)n3)o2)c1,"inconclusive [activator, single point]",–
Cc1cc(-c2ccc(S(=O)(=O)Nc3ccc(Cl)cc3C)cc2)on1,active: 15.8 µM,–
Cc1cc(C)n(S(=O)(=O)c2ccc(Cl)c(Cl)c2Cl)n1,"inconclusive [activator, single point]",–
